Consider 44 sequences from the supplement of paper PMC11417369.

The list shows a part of the results.

This assay concerns PfHDP1 homeodomain (GST-tagged). The assay is described as follows: gcPBM binding intensity (ln(normalized median fluorescence intensity)); higher = stronger DNA binding. Summed up:
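After 1 h on an Agilent 4 × 180k array of primer-extended double-stranded 36-bp intergenic genomic probes and negative controls, bound GST-tagged P. falciparum DNA-binding domains were detected with Alexa488 anti-GST antibody and scanned at 488 nm. The domains had been expressed in E. coli, and binding took place in 1× PBS with 1% milk, 0.2 mg/ml BSA, 0.5% salmon testes DNA and 0.03% Triton X-100. Binding intensity is the highest Masliner-normalised natural-log median intensity across replicate spots of either probe orientation.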
“CTTAGAATATATGAATGTACTTTTTTTTTTAAATAA [XGTACX_site6048]”: the “gcPBM binding intensity (ln)” value worked out at 5.8. For “AGTATACAGATATATACACACATATATATATATATA [CACACA_site4323]” the value was 9.34. For “ATAATATATTTTTGTAGTACACTTCTGGTAATATCG [XGTACX_site2402]” the value was 6.83; for “AAAAAAAAAAATACTCGTACATAAACCTATACATTT [XGTACX_site6494]”, 6.34. In the case of “CAATTAGCATTTTATTGTACATTTATAATCTATGAT [XGTACX_site1445]”, the “gcPBM binding intensity (ln)” value was determined as 6.56.

Consider “TATATATATATATGTTGTACAAAAATGTAAAATATA [XGTACX_site7761]”, for which the “gcPBM binding intensity (ln)” value was 9.42. In the case of “ATACATATAAATAATTGTACTATTAAAAAAGAACGT [XGTACX_site3751]”, the “gcPBM binding intensity (ln)” value was found to be 7.04. For “TATATTTATAGGTATACACACATATGTATGTTATGT [CACACA_site7824]” the value was 6.54.

“TTATGTATTTATATAAATATAAATATATATATATAT [CACACA_negctrl_site774]”: the “gcPBM binding intensity (ln)” value was 8.87.

“TTTCCCTTGTTGTAAACATGCACAATATTTAGGTAT [TGCATGCA_site49]”: the “gcPBM binding intensity (ln)” value is 8.22. For “AAAAAAAAGAAAAACACACACATATATATATAGAAT [CACACA_site1006]” the value was 6.83. Consider “TAAGTAACTTTTAAAAGTACCCACACATATATATAT [XGTACX_site1231]”, for which the “gcPBM binding intensity (ln)” value was determined as 8.55. As for “ACAAAAATAAACTATAGTACACACTTATTATTATGA [XGTACX_site5680]”, the “gcPBM binding intensity (ln)” value is 6.46. For “TCATTTTATTTTTTCACACACACATCTATATTTATA [CACACA_site7547]” the value was 6.89. Consider “TTTCTTTTTTTTTTTTTTTTTTTTTTTTTTTTTTTT [TGCATGCA_negctrl_site91]”, for which the “gcPBM binding intensity (ln)” value stood at 7.23. For “TTTCTTTTTTTATAATCCACATTGGGAAAATCAAAA [TGCATGCA_negctrl_site159]” the value was 6.39.

As for “ACGTATAATATGTACACACACATATATACAAAAAAA [CACACA_site917]”, the “gcPBM binding intensity (ln)” value stood at 6.66.

For the sequence “GTATAACTTTTGCGCGTACACACATTTATCCTCTTT [CACACA_site208]”, the “gcPBM binding intensity (ln)” value worked out at 8.08. With “AAAGTTGTTACGAACATACACACGAACATACTCACG [CACACA_site604]”, the “gcPBM binding intensity (ln)” value was determined as 6.72. For “TAGAATATCCCCTACACACCCAAATAATTTACAAAT [CACACA_site4825]” the value was 7.29. For the sequence “CATATATTATTATATGCACACATGAAAATATACAAA [CACACA_site2795]”, the “gcPBM binding intensity (ln)” value worked out at 9.75. For “AAAATATTTATTACTTCACACATTATTGTATTTATA [CACACA_site5082]” the value was 6.5. For “TTGAAATATACGTAAGTAAATTTCATTTGGTTGTGT [XGTACX_negctrl_site600]” the value was 6.18; for “TTCTTTCTGTTTTATTTATAATAATTTATGATAAAA [CACACA_negctrl_site766]”, 6.81; for “TGTTTTTAATTTCGCACACACCTTGTGGAAAAAAAA [CACACA_site4482]”, 6.97. For “AAGATATTTGAATATACACACGATTTAAATTTAATA [CACACA_site3866]” the value was 6.45; for “ATATATATATTTGTATGTACATATCATATTGTGTGT [XGTACX_site1580]”, 8.16; for “ATACGTGGGCAAAAAGTGCATATAATCAAAAAAAAA [GTGCAC_site9961]”, 7.98. For “TATGTATTTTTATGCACACATGCGTGGCTTATATAA [CACACA_site387]”, the “gcPBM binding intensity (ln)” value amounted to 10.5. For “ATATTTTCTTTAAATTGTACATATTGTGATACAAAA [XGTACX_site5886]”, the “gcPBM binding intensity (ln)” value is 6.53.

On to “TATATACATACATGTAGTACCTAATTCGGTCCCGTA [XGTACX_site2702]”, for which the “gcPBM binding intensity (ln)” value is 6.24. “TTTCATTTAGCTTTTACACACTATATATTATTGATT [CACACA_site16]”: the “gcPBM binding intensity (ln)” value turned out to be 7.19. Take “ATTTTTTTTTTTTTTTTTTTTTTGTTTATACAAAAT [CACACA_negctrl_site1241]”: the “gcPBM binding intensity (ln)” value was determined as 6.05. For TATATGTGTCTACAGGTGCATATATCATATATTGCT the value was 7.99; for “ACACATACATATACATACACATTGTTTTCATGCATC [XGTACX_negctrl_site126]”, 7.17; for “TAAATAAATTTATACACACACACACGGATATAAATA [CACACA_site6532]”, 6.91. As to “TATAAATATTTATACACACACATATATTTATATATC [CACACA_site6366]”, the “gcPBM binding intensity (ln)” value amounted to 6.95. As for “AAATATAAAGGATTAATATTATATATATATATATAT [XGTACX_negctrl_site211]”, the “gcPBM binding intensity (ln)” value turned out to be 9.24.

On to “GTATTATATATATAGGTGCATATATATATATAAATA [GTGCAC_site9787]”, for which the “gcPBM binding intensity (ln)” value stood at 9. Turning to “GTTTGGTGGTGTTTTGGTACGTACGGGGGGGTATGT [XGTACX_site1983]”, the “gcPBM binding intensity (ln)” value came to 8.26. With “TTTTTTTTTTTTTATTGTACTTATTTTTTTATGTTT [XGTACX_site7725]”, the “gcPBM binding intensity (ln)” value worked out at 5.96. In the case of “ATTTACATAAATTGCATATATCGATGTAAATAAATA [CACACA_negctrl_site1150]”, the “gcPBM binding intensity (ln)” value is 6.71.

For the sequence “TCTTTTTAAACTAATAGTACATATATATTAATAAAT [XGTACX_site4217]”, the “gcPBM binding intensity (ln)” value worked out at 6.2.

As to “CATTTATTTTTGTTCTGTACATAAAGATGAACAAAA [XGTACX_site6797]”, the “gcPBM binding intensity (ln)” value is 6.29.
